# In all, about 2,300 sequences were measured (“median log2 fold change of GCK-ALFA target abundance (FLAG IP / Myc IP barcode read proportion)”: median about 0.095, lowest 2% from about -0.47 on). The list shows a part of the results.
# B1: LC3A_147_399 (protein)
# chain: ALVEVDIDLLTNGDREVVEELVERLRETAEALGARVEVEVELEEEPGELYSRITVRAEVSDDPEEIARLEDALLDTIDEFLEENRDKVLGALISVDVIRR
# B2: LC3A_free_8_2547 (protein)
# chain: DVEAFAAALSALLDKLEEEIRKEAKKLGVDRLDILDLELLVGETIAEALEAAEEGPEAALEAVREGLEEVIKEAKKISEELAKIVEKKSEEVLEEAEKLL
# B3: LC3A_free_8_2451 (protein)
# chain: KAQEATDVALEKLEELEEELVKKAKELGLDELDILELELEIGAAIIDIIEASDKSLEEIIKVAEESMKEIIELAKELGEELAKLAEEKSEELMEELEELK
# B4: LC3A_3_1513 (protein)
# chain: MEELIKETLELLKEAGKSEEVIKAAREALEALKEKGYEEALKVFAEELKKLIDLPDELLLDLFKEVKELVENSDLSEEELIKKIKELARIYKSEGEIEEL
# B5: LC3A_28_1097 (protein)
# chain: SALEKQLAAALAEVKAAAAAGEPVTVTITVTDEATEEDIELLKETLKEMAEIGKTLPSLTVIINLSGKKAQEKATIISEFADELEKKYPNLTVIIALDED
# B6: LC3A_78_2079 (protein)
# chain: MKVAIIAHEESAKELAEEEKKKLTDADEVVVGPISELEELVEKYKDADEIIISIHADTLDKVDAAVEKVKEILSDYNISEIIEYDEETGHYTGHIWAEKK
# B7: LC3A_28_718 (protein)
# chain: SALEKSIKEALEKAKEAAEKGEEVVIEIKVPGDATEEDIEKVIKTLEEIAEILKDLPSQSIIIDVDGGVKQEYIDKLADKAEEIEKKYPNVTVIIALDEE
# B8: LC3A_28_1296 (protein)
# chain: SALKEQLDKVLEEAKKAAERGEPVVLTIKVPGDANEEDIDYLIEKLKEIAEVLKDVPGSAIIIDVDAKLKQEHLDKIMEAAEEIEEKYPNVTVIIALEEP
# B9: LC3A_17_570 (protein)
# chain: SAEIEALVREAEAALRRAEAFAATIDPAAAAEIAALLARVREAAATLSDLEIARVIAEAMDRASRILDSLEDKDPDAASLLSMEMEGVAVEAESLALKLE
# B10: LC3A_28_953 (protein)
# chain: TSLDDILAAALAEAKAAAAAGEPAVITITVPGDATEEDIEKVIATLKEIAEILKDVKGAAIVVDVEAGVKQEHIDKLADAAEEIEKKYPNITVILALDED
# B11: LC3A_free_8_2445 (protein)
# chain: KNQELVDKITEKLDELEEEVEKKAKELGLSRLEILELSLLIGSVISEIISATDDSIEKIKEIATKELTELEEEAKKLSEELAKIVKETKEEILKLIEEAE
# B12: LC3A_3_1750 (protein)
# chain: MEEKLKEARELGEELGFSEETIEAFLKVVELLLERGFEEAVEVLLELLEEQKDLPDEILLAMLEDIERVIETEDLNEEEVIERIREEFRTARNEAEIEEL
# B13: LC3A_28_656 (protein)
# chain: MSIEEIIEEALKKAEEAKEKGEPAVITITVPGSANEEDIELVIEAMEKIAEMLKDIEGSAIIIDLTGNLKEEHRNLLIDKGEELEKKYPNVTVIIAEDEE
# B14: LC3A_45_2006 (protein)
# chain: MYLATVDVLVPREKAEEAVRVARETARRLEAEHAGKVRVDLERLEESYEASKDEEEVYLEVEIYAETEELALDLADELVDALEEALGDSVAAIISVKEVP
# B15: LC3A_147_406 (protein)
# chain: YRLEIDIDILHKGKEELVEELAEEIKELLEEMGLEVEIEIEHEKIDENTDYSHIKITVEAETKEEAEEAANKILDLIDEFEEKNKDEILGSLISYEIEEL
# B16: LC3A_3_1697 (protein)
# chain: MEEILKEAREIAEKLGLSEETIEAILEALKALLEKGYEEAAKTLLELLKEAKDLSDEIVKDFAEDVKRVAEEEDLSEEEVIKRIKELYEIAKNEQEIEEL
# B17: LC3A_147_438 (protein)
# chain: WKAEVDVDILTKNAEEEVLAAFKALADELKAQGYTVTLDIEVEKLENGETYIHVTITVDAPTEADAKAAADYVVDRIEELEEKLKDKILGSIISVDISKK
# B18: LC3A_141_354 (protein)
# chain: MEEKKTYTIEAETPEEAIEKVEKVKEEIKKLMKEKGYKEVKITVTIKTKNKETGEEETETINETVTPENIDLVFDSIIISVASAALKGDVTTTIEATLIK
# B19: LC3A_free_46_2359 (protein)
# chain: MEIDIDLLAKGKSEEEVKEIAERLREGIEEIAEEEGVEVEIEVEIEKDEEGDYFIDIEIEVDAPTPEKARRFSSRVSELVDELSLEEGLAAIISIEEDEP
# B20: LC3A_3_1669 (protein)
# chain: MEEIEKLLEAMDAAKTADEKLKYLREAAEKLFELYGFEEEKEIVTENLEKLFSQDDEFKEEAVEELREELERVIEEGPEEIPRLVELARTLANESEIEEL
# B21: LC3A_3_1783 (protein)
# chain: MEERIEELLRELREAGKSEETIEAVRRALEELRERGYEEALEVFVEETRELLDLPDEILLDFAREVLDLVLNEDLSEEELTERIRELARLARLEAEIEEL
# B22: LC3A_free_46_2415 (protein)
# chain: WRVEVEVWTRAAPREEIEALVERLTEGAREIAEKHGAEVEIEVEFFENEDGTWSALIRITVRVEDRETAERIAQELLDLIDELDDETGLIGLISVDVEEE
# B23: LC3A_3_1760 (protein)
# chain: MEEFIEEAREELREAGADEELIEIAERALRLLLERGLEETAREFVETLLELLKKSKELALDLARDVLELLETSTLSPEELAKEVRSLINAALAESEIEEL
# B24: LC3A_102_127 (protein)
# chain: EVEKLKKELLEKVKKEVEKLLEKDKSLSEEEKKKILELAEKLAEAKLENAEIEIQHGFVDIYLEDKAIELQEELEKIDKELAKKINEIIEKGVEEFRKKL
# B25: LC3A_28_690 (protein)
# chain: NKIEELKKKAEEILEKAAANGEEAFIEINFDEPITPEEAKELMDELEKYIKKYKLPKVDIVINILSPEQTQETIDTLMDEAERLEKKIPNVTVIIALPED
# B26: LC3A_3_1579 (protein)
# chain: SSSFIEEAEEKLRAAGLSEEVIEKAREVLEALLEKGWVEEAKLVVEGLLRLKDAPTELLLEALEEILEVAKDESLSKEEALEKIKEILSTAESEAEIIEL
# B27: LC3A_free_46_2434 (protein)
# chain: VKVKIDVSLLHEDEEVLKKAVEELKKKFEEIAKKYGAKLEIKVEFSKDEDGYHFADIKITAEVDTLEKAEKIANEMIKTTDEIVEKYDVSSIISVEIEVE
# B28: LC3A_28_661 (protein)
# chain: SATRASIEAALKAAKEAKAAGEPAVITLKITGDATQEDIDAAIAAMEEIAELLKDIPGSAIIIDLDGDVAQEHRDALIDKAEELEKKYPNVTVIIALEEV
# B29: LC3A_17_563 (protein)
# chain: MEELKKEIEELIKELEELIKILAKEDPEAAKKVQKLLEKAKKALKAGDLKEAAKYLAEAFRLAADAFAKLDEEKNGKYANEEMLANGLELRALGLIEKLE
# Biological target: MAP1LC3A, Q9H492
# Test: median log2 fold change of GCK-ALFA target abundance (FLAG IP / Myc IP barcode read proportion) (log2 ratio); each designed protein is fused to an ALFA-tag nanobody in HEK293 cells to bring the named protein to FLAG-tagged glucokinase (GCK); Myc marks an untargeted standard; higher = target protein stabilised (more abundant)
# Settings: target protein: 3xFLAG-MCP-GCK-ALFA reporter; HEK293 landing pad (RPLP)
# Procedure: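 LABEL-seq trans screen in HEK293 landing-pad cells. Each de novo designed 100-aa effector handle, binding the indicated effector (E3 ligase, DUB or autophagy protein), is fused to a constant NbALFA target handle and induced with 2 ug/mL doxycycline. A FLAG-MCP-GCK-ALFA target and a Myc-MCP standard reporter were transfected, and after 48 h circRNA barcodes were recovered by anti-FLAG and anti-Myc IP and sequenced. The value is the median across barcodes (at least 3 per design) of log2(FLAG/Myc read-proportion ratio), with the two transfection replicates pooled. Negative values mean degradation and positive values mean stabilisation of the target.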
row,Binder,median log2 fold change
1,B1,-0.157
2,B2,-0.158
3,B3,-0.357
4,B4,0.395
5,B5,0.29
6,B6,0.126
7,B7,0.323
8,B8,-0.0615
9,B9,0.292
10,B10,-0.0309
11,B11,0.116
12,B12,0.136
13,B13,0.385
14,B14,-0.115
15,B15,-0.22
16,B16,0.273
17,B17,-0.15
18,B18,0.207
19,B19,-0.226
20,B20,0.072
21,B21,0.184
22,B22,-0.11
23,B23,0.157
24,B24,-0.519
25,B25,0.316
26,B26,0.242
27,B27,0.167
28,B28,-0.185
29,B29,-0.0312
